Laboratory results taken from PubChem BioAssay (Tox21).
“And” between values parts separate entries of the source, which are not always exact repeats. Identical values can stand only once. The inconclusive results got no clear call from the source; some entries with a clear call stand among them for comparison. A potency beside an inconclusive call is a rough fit, not a confirmed value. The source made the active and inactive calls. Unless noted, calls follow the shape of the dose curve; as a rule, active = well fitted curve in the direction sought with a large enough effect in the repeat runs; inconclusive = weak or mixed curves; inactive = no such curve, though single readings can be large; an effect the other way counts as inactive or inconclusive.

Assays:
[1] = qHTS assay to identify aromatase inhibitors - cell viability counter screen (AID 743084); details: MCF-7 aro ERE viability, CellTiter-Fluor, 24 h; activity change, negative = cytotoxicity: at 70.3 µM (top of the series);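 also: cells stimulated with testosterone during compound exposure; nearly all actives have a fitted effect of over 55% in size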
[2] = target: Peroxisome proliferator-activated receptor gamma (Homo sapiens) (UniProt P37231); assay: qHTS assay to identify small molecule agonists of the peroxisome proliferator-activated receptor gamma (PPARg) signaling pathway (AID 743094; active = well fitted activation curve with a large enough effect in the signal ratio in the repeat runs, not every such curve was filed as active; inconclusive = weak or mixed curves, or effect the other way; inactive = no such curve, though single readings can be large or run the other way; the % refers to the signal ratio); details: HEK293H PPARg-UAS-bla, beta-lactamase FRET ratio, 17 h; activation: at 57 µM (top of the series) unless noted
Procedure, shortened: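 GeneBLAzer PPARg UAS-bla HEK293H cells carrying a stably integrated beta-lactamase reporter were pre-incubated 5 h at 37C, then exposed to compounds in DMSO for 17 h at 37C; LiveBLAzer B/G FRET substrate was added for 1 h at room temperature and fluorescence read.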

[3] = target: Peroxisome proliferator-activated receptor gamma (Homo sapiens) (UniProt P37231); assay: qHTS assay to identify small molecule antagonists of the peroxisome proliferator-activated receptor gamma (PPARg) signaling pathway (AID 743191; calls by dose curve; also: nearly all actives have a fitted effect of over 30% in size; as to ratio activity, negative = inhibition: % is scaled to controls: 0 for no effect and ±100 for the full control effect); details: HEK293H PPARg-UAS-bla, beta-lactamase ratio, antagonist, 17 h; ratio activity, negative = inhibition: at 62.6 µM (top of the series) unless noted
Procedure, shortened: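 GeneBLAzer PPARg UAS-bla HEK293H cells carrying a UAS-driven beta-lactamase reporter were plated at 3000 cells/well, preincubated 5 h at 37C, then given compound for 17 h at 37C; LiveBLAzer B/G FRET substrate was read after 1 h at room temperature.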

[4] = qHTS assay to identify small molecule antagonists of the peroxisome proliferator-activated receptor gamma (PPARg) signaling pathway - cell viability counter screen (AID 743194); details: PPARg-bla HEK293H viability, CellTiter-Glo luminescence, 17 h, co-treated with 50 nM rosiglitazone; activity change, negative = cytotoxicity: at 62.6 µM (top of the series); also: nearly all actives have a fitted effect of over 55% in size; as to activity change, negative = cytotoxicity: % is scaled to controls: 0 for no effect and ±100 for the full control effect
Procedure, shortened: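 PPARg-UAS-bla HEK293H cells were plated, rested 5 h at 37 C, then treated with compounds plus rosiglitazone (50 nM final) for 17 h at 37 C; viability was then read by CellTiter-Glo luminescence after 30 min at room temperature.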

[5] = qHTS assay for small molecule agonists of the antioxidant response element (ARE) signaling pathway (AID 743202; active = well fitted activation curve with a large enough effect in the signal ratio in the repeat runs, not every such curve was filed as active; inconclusive = weak or mixed curves, or effect the other way; inactive = no such curve, though single readings can be large or run the other way; the % refers to the signal ratio); details: HepG2 ARE-bla reporter, beta-lactamase FRET, 16 h; activation: at 73.3 µM (top of the series) unless noted
Procedure, shortened: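 Compounds delivered in DMSO to ARE-bla HepG2 cells (2,000 cells/well, pre-incubated 5 h) and left 16 h at 37 C. LiveBLAzer B/G FRET substrate then added for 2 h at RT before fluorescence reading.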

[6] = qHTS assay to identify small molecule agonists of the farnesoid-X-receptor (FXR) signaling pathway - cell viability counter screen (AID 743218); details: FXR-bla HEK293T viability, CellTiter-Glo luminescence, 16 h; viability change, negative = cytotoxic: at 62.6 µM (top of the series) unless noted; also: nearly all actives have a fitted effect of over 45% in size; as to viability change, negative = cytotoxic: % is scaled to controls: 0 for no effect and ±100 for the full control effect
Procedure, shortened: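 FXR-UAS-bla HEK 293T cells, plated 5 h at 37 C, were exposed to compounds for 16 h at 37 C. CellTiter-Glo was then added to the same wells as the bla readout; luminescence read after 30 min at room temperature.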

[7] = target: Vitamin D3 receptor (Homo sapiens) (UniProt P11473); assay: qHTS assay to identify small molecule agonists of the vitamin D receptor (VDR) signaling pathway (AID 743222; calls by dose curve); details: HEK293T VDR-UAS-bla, beta-lactamase FRET ratio, 16 h; activation: at 63.5 µM (top of the series) unless noted
Procedure, shortened: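 VDR-bla cells were plated 4 h at 37C/5% CO2, then exposed to compounds in DMSO for 16 h. After LiveBLAzer B/G FRET substrate addition and 2 h at room temperature, beta-lactamase reporter fluorescence was read.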

[8] = target: Vitamin D3 receptor (Homo sapiens) (UniProt P11473); assay: qHTS assay to identify small molecule antagonists of the vitamin D receptor (VDR) signaling pathway (AID 743223; active = well fitted inhibition curve with a large enough effect in the signal ratio in the repeat runs, not every such curve was filed as active; inconclusive = weak or mixed curves, or effect the other way; inactive = no such curve, though single readings can be large or run the other way; the % refers to the signal ratio; as to activity change, negative = inhibition: % is scaled to controls: 0 for no effect and ±100 for the full control effect); details: VDR-UAS-bla HEK293T, beta-lactamase FRET ratio, 16 h; activity change, negative = inhibition: at 61 µM (top of the series) unless noted
Procedure, shortened: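 Antagonist mode: compound added to VDR-bla cells alongside agonist 1alpha,25-dihydroxyvitamin D3 (3 nM final), incubation 16 h at 37C. Read-out is LiveBLAzer FRET fluorescence, 2 h at room temperature.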

[9] = qHTS assay to identify small molecule that activate the aryl hydrocarbon receptor (AhR) signaling pathway - cell viability counter screen (AID 743086); also: nearly all actives have a fitted effect of over 45% in size
Procedure, shortened: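 HepG2-AhR-luc (HG2L7.5c1) cells, 4000/well, were preincubated 5 h at 37C, exposed to compound in qHTS format for 24 hr at 37C, then given CellTiter-Fluor for 30 min; viability was read as fluorescence in the reporter wells.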

[10] = qHTS assay to identify small molecule agonists of the peroxisome proliferator-activated receptor delta (PPARd) signaling pathway - cell viability counter screen (AID 743211); details: PPARd-bla HEK293H viability, CellTiter-Glo luminescence, 17 h; activity change, negative = cytotoxicity: at 62.6 µM (top of the series); also: nearly all actives have a fitted effect of over 55% in size
Procedure, shortened: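 Viability was measured as CellTiter-Glo luminescence (30 min, room temperature) in the same wells as the beta-lactamase readout. GeneBLAzer PPARd UAS-bla HEK293H cells received compound after 5 h plating and were incubated 17 h at 37 C.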

[11] = target: Peroxisome proliferator-activated receptor delta (Homo sapiens) (UniProt Q03181); assay: qHTS assay to identify small molecule agonists of the peroxisome proliferator-activated receptor delta (PPARd) signaling pathway (AID 743212; calls by dose curve); details: HEK293H PPARd-UAS-bla, beta-lactamase FRET ratio, 17 h; activation: at 62.6 µM (top of the series) unless noted
Procedure, shortened: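 A PPARd-bla HEK293H line with beta-lactamase under an Upstream Activator Sequence is treated with compounds at 37 C. Substrate loading for 2 h at room temperature precedes the fluorescence measurement.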

[12] = qHTS assay to identify small molecule antagonists of the peroxisome proliferator-activated receptor delta (PPARd) signaling pathway - cell viability counter screen (AID 743213); details: PPARd-bla HEK293H viability, CellTiter-Glo luminescence, 17 h; viability change, negative = cytotoxic: at 62 µM (top of the series) unless noted; also: nearly all actives have a fitted effect of over 50% in size
Procedure, shortened: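 PPARd-bla HEK293H cells (3000/well) got compound plus 300 nM L165041 agonist for 17 h at 37 C. Viability in the same wells came from CellTiter-Glo luminescence after 30 min at room temperature.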

[13] = target: Bile acid receptor (Homo sapiens) (UniProt Q96RI1); assay: qHTS assay to identify small molecule antagonists of the farnesoid-X-receptor (FXR) signaling pathway (AID 743217; active = well fitted inhibition curve with a large enough effect in the signal ratio in the repeat runs, not every such curve was filed as active; inconclusive = weak or mixed curves, or effect the other way; inactive = no such curve, though single readings can be large or run the other way; the % refers to the signal ratio); details: HEK293T FXR-UAS-bla, beta-lactamase ratio, CDCA-stimulated, 16 h; activity change, negative = inhibition: at 62.6 µM (top of the series) unless noted
Procedure, shortened: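 FXR-UAS-bla HEK 293T cells pre-incubated 5 h at 37 °C, then exposed to compounds with chenodeoxycholic acid (50 uM final) for 16 h at 37 °C. Beta-lactamase reporter read by LiveBLAzer B/G FRET substrate fluorescence after 2 h at room temperature.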

[14] = qHTS assay for small molecule activators of the heat shock response signaling pathway - cell viability counter screen (AID 743209); details: HSE-bla HeLa viability, CellTiter-Glo luminescence, 5 h; activity change, negative = cytotoxicity: at 62.6 µM (top of the series); also: nearly all actives have a fitted effect of over 50% in size
Procedure, shortened: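 CellSensor HSE-bla HeLa cells, plated overnight at 37 C/5% CO2, were exposed to compounds in DMSO for 5 h at 37 C. Viability was then read in the same wells by CellTiter-Glo luminescence after 30 min at room temperature.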

[15] = qHTS assay for small molecule activators of the heat shock response signaling pathway (AID 743210; active = well fitted activation curve with a large enough effect in the signal ratio in the repeat runs, with a control signal flat, not every such curve was filed as active; inconclusive = weak or mixed curves; the % refers to the signal ratio); details: HeLa HSE-bla reporter, beta-lactamase ratio, 5 h; activation: at 62.6 µM (top of the series)
Procedure, shortened: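 Reporter gene assay: HeLa cells stably bearing an HSE-bla construct, compound treatment 5 h at 37 C, LiveBLAzer substrate 2.5 h at RT, fluorescence intensity.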

[16] = target: Peroxisome proliferator-activated receptor delta (Homo sapiens) (UniProt Q03181); assay: qHTS assay to identify small molecule antagonists of the peroxisome proliferator-activated receptor delta (PPARd) signaling pathway (AID 743215; active = well fitted inhibition curve with a large enough effect in the signal ratio in the repeat runs, not every such curve was filed as active; inconclusive = weak or mixed curves, or effect the other way; inactive = no such curve, though single readings can be large or run the other way; the % refers to the signal ratio;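 also: cells stimulated with agonist L165041 at 300 nM final during compound exposure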); details: HEK293H PPARd-UAS-bla, beta-lactamase FRET ratio, antagonist, 17 h; ratio activity, negative = inhibition: at 62 µM (top of the series) unless noted
Procedure, shortened: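 PPARd UAS-bla HEK293H cells were pre-incubated 5 h at 37 C, then given test compounds in DMSO plus agonist L165041 (300 nM final). After 17 h at 37 C, beta-lactamase FRET substrate was added; fluorescence read after 2 h at room temperature.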

[17] = target: Bile acid receptor (Homo sapiens) (UniProt Q96RI1); assay: qHTS assay to identify small molecule agonists of the farnesoid-X-receptor (FXR) signaling pathway (AID 743220; active = well fitted activation curve with a large enough effect in the signal ratio in the repeat runs, not every such curve was filed as active; inconclusive = weak or mixed curves, or effect the other way; the % refers to the signal ratio); details: HEK293T FXR-UAS-bla, beta-lactamase FRET ratio, 16 h; activation: at 62.6 µM (top of the series) unless noted
Procedure, shortened: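 Beta-lactamase reporter under UAS control in GeneBLAzer FXR HEK 293T cells (5000/well) measured with LiveBLAzer FRET substrate after 2 h at room temperature. Compound exposure lasted 16 h at 37C.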

[18] = qHTS assay to identify small molecule antagonists of the farnesoid-X-receptor (FXR) signaling pathway - cell viability counter screen (AID 743221; active = well fitted cell-killing curve with a large enough effect in the repeat runs, not every such curve was filed as active; inconclusive = weak or mixed curves, or effect the other way; inactive = no such curve, though single readings can be large or run the other way; also: nearly all actives have a fitted effect of over 50% in size); details: FXR-bla HEK293T viability, CellTiter-Glo luminescence, 16 h; activity change, negative = cytotoxicity: at 62.6 µM (top of the series)
Procedure, shortened: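 Cytotoxicity counter screen run in the FXR-bla reporter wells: HEK 293T cells exposed to compound with 50 uM (final) chenodeoxycholic acid for 16 h, 37 C, then viability measured by CellTiter-Glo luminescence after 30 min, room temperature.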
Potency is read from the fitted curve at half-maximal effect; tags tell the direction and shape of the fitted curve or compound fluorescence and quenching.

UniProt Q03181, sequence (Q03181 whole entry, looked up): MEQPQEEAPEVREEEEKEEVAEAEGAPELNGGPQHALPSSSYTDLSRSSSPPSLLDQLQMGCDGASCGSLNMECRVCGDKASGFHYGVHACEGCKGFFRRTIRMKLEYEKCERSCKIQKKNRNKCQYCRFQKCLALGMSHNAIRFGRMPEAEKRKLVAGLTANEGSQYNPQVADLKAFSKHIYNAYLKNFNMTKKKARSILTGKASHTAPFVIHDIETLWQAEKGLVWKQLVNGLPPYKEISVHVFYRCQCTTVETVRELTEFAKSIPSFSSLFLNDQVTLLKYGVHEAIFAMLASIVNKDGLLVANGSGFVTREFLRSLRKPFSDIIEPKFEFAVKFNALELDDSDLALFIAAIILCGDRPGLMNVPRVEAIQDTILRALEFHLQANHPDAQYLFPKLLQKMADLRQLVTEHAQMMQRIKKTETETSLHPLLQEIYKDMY
UniProt P37231, sequence (P37231 whole entry, looked up): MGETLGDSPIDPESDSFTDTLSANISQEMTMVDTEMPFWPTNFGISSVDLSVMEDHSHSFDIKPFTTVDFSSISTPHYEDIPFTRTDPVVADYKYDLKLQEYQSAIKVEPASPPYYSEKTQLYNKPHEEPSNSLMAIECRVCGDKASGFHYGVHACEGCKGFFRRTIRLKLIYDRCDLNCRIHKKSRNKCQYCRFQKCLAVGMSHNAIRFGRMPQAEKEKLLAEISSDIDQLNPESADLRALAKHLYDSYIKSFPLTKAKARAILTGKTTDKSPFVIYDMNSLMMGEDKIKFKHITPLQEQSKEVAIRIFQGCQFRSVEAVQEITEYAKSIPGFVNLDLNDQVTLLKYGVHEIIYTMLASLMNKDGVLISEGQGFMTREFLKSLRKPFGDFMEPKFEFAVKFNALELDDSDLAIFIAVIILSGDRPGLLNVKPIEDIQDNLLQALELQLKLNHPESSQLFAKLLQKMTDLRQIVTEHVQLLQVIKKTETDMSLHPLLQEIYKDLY
UniProt P11473, sequence (P11473 whole entry, looked up): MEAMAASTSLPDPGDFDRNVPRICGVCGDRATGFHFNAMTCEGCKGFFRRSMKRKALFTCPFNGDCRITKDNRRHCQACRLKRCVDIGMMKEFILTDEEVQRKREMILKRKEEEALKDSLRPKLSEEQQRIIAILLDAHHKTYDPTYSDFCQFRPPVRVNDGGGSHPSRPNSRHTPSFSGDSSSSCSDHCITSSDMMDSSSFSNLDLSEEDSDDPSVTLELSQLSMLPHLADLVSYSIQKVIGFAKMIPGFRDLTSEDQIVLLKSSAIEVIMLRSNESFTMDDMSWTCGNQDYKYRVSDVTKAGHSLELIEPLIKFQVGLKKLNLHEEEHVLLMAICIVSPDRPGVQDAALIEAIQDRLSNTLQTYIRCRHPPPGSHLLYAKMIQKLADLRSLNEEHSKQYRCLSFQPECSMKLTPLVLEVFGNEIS
UniProt Q96RI1, sequence (Q96RI1 whole entry, looked up): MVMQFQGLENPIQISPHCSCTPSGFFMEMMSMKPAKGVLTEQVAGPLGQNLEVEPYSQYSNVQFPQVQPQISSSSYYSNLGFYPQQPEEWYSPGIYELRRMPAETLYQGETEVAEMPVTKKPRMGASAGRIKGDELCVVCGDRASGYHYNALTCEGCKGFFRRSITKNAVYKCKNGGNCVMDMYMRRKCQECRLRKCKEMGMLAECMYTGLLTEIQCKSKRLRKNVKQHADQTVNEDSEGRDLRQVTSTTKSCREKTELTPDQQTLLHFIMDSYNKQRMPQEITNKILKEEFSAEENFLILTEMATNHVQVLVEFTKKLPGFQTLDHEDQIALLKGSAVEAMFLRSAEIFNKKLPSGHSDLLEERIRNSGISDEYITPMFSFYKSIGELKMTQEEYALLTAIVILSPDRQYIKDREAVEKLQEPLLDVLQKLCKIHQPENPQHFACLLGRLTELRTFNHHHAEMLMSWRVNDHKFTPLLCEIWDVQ

CCC(C)N(C)C(=O)c1cc2ccccc2c(-c2ccccc2Cl)n1 (stereo not drawn)
inconclusive: Potency [1] 35.2 µM [cytotoxic, single point] | Potency [2] 39.9 µM [rising, partial curve, poor fit] | Potency [5] 35.2 µM | Potency [7] 28.2 µM [rising, partial curve] | activity change, negative = inhibition [8] 29%
inactive: Potency [3] | Potency [4] | Potency [6]

CC(C)OC=O
inactive: Potency [5] | Potency [13] | Potency [7] | Potency [8]
inconclusive: Potency [1] 72.9 µM [cytotoxic, single point] | Potency [9] 65 µM [falling, partial curve] | Potency [10] 58.4 µM [cytotoxic] | Potency [11] 65.5 µM [single point] | Potency [12] 65.5 µM [cytotoxic, single point] | Potency [6] 1.95 µM [rising, full curve, poor fit]

O=C(O)c1ccccc1Nc1cccc(C(F)(F)F)c1
inconclusive: Potency [1] 61.1 µM [rising, partial curve] | activation [2] -16.5% | Potency [4] 26.6 µM [cytotoxic, partial curve, poor fit] | Potency [14] 0.75 µM [cytotoxic, partial curve] | Potency [15] 38.9 µM [falling, partial curve] | Potency [10] 33.5 µM [cytotoxic, partial curve, poor fit] | activation [11] 9.45% and 6.21% | Potency [12] 61.6 µM [cytotoxic, single point] | Potency [7] 30.9 µM [rising, partial curve, poor fit] | activation [7] -5.99% | activity change, negative = inhibition [8] -4.4%

CC(C(=O)O)c1ccc(-c2ccccc2)c(F)c1 (stereo not drawn)
inconclusive: Potency [1] 4.86 µM [rising, partial curve, poor fit] | Potency [2] 8.11 µM [activator, partial curve, poor fit] and 13.8 µM [activator, full curve, poor fit] | Potency [3] 19.5 µM [rising, partial curve] | activation [5] 15.8% | activation [11] 7.66%
inactive: Potency [16]

O=C1NCCN1CCN1CCC(c2cn(-c3ccc(F)cc3)c3ccc(Cl)cc23)CC1
inconclusive: Potency [1] 33.5 µM [cytotoxic, single point] | activation [2] -13.7% | Potency [3] 29.8 µM [cytotoxic, partial curve, poor fit] | Potency [5] 33.5 µM | Potency [15] 33.5 µM [falling, partial curve, poor fit] | Potency [11] 3.35 µM [rising, full curve, poor fit] | Potency [16] 33.5 µM [inhibitor, single point] | activation [7] -21.9%
active: Potency [4] 29.8 µM | Potency [10] 23.7 µM | Potency [12] 23.7 µM | Potency [6] 23.7 µM

C=CC(=O)OCCCCCCOC(=O)C=C
inconclusive: Potency [1] 69.4 µM [cytotoxic, single point] and 68.6 µM [cytotoxic, single point] | Potency [2] 62.4 µM [single point] and 19.5 µM [activator] | Potency [14] 62.4 µM [cytotoxic, single point] | Potency [15] 51.5 µM and 34.7 µM | Potency [10] 43.6 µM [cytotoxic, partial curve] | Potency [13] 55.6 µM [single point] | Potency [6] 55.6 µM [cytotoxic, single point] | Potency [17] 62.4 µM [rising, single point] and 61.7 µM [rising, single point] | Potency [18] 55.6 µM [falling, single point] | Potency [7] 49.6 µM | activation [7] -20.9%

Cc1cc(=O)oc2cc(O)cc(O)c12
inconclusive: Potency [1] 48.7 µM [rising, partial curve] | activation [2] 14.1% [at 78.9 µM] | ratio activity, negative = inhibition [3] 25.9% [at 81.1 µM] | Potency [5] 13.7 µM [rising, full curve] | Potency [15] 45.5 µM [activator] | Potency [11] 22 µM [rising, full curve, poor fit] | Potency [16] 55.2 µM [activator] | Potency [17] 49.2 µM [activator, partial curve] | Potency [7] 43.8 µM [fluorescent, partial curve] | Potency [8] 49.2 µM [fluorescent]
